Results as given in PubChem BioAssay AID1159614 (National Center for Advancing Translational Sciences (NCATS), 2016).
The campaign covered roughly 45,000 compounds. About 65 (0.1%) were called active. The call rests on the fitted dose curve; in most records, active means well fitted activation curve with a large enough effect; inconclusive means small, poorly fitted or top-dose-only effect; inactive means no such curve, though single readings can be large or run the other way. This is one part of the list.

target: Galactocerebrosidase (Homo sapiens) (UniProt P54803); experiment: A Novel Cell-Based Assay to Identify Small Molecules for B -Galactocerebrosidase; settings: 145M-Twi-hGALC-G270D cells (Twitcher mouse brain line with human GALC G270D), HMU-beta-Gal fluorescence, 48 h; series mostly up to 57.5 µM; activation: at the top concentration; further: 0% is about no effect; nearly all actives have a fitted effect of over 65% in size
Sequence of UniProt P54803 (P54803 whole entry, looked up): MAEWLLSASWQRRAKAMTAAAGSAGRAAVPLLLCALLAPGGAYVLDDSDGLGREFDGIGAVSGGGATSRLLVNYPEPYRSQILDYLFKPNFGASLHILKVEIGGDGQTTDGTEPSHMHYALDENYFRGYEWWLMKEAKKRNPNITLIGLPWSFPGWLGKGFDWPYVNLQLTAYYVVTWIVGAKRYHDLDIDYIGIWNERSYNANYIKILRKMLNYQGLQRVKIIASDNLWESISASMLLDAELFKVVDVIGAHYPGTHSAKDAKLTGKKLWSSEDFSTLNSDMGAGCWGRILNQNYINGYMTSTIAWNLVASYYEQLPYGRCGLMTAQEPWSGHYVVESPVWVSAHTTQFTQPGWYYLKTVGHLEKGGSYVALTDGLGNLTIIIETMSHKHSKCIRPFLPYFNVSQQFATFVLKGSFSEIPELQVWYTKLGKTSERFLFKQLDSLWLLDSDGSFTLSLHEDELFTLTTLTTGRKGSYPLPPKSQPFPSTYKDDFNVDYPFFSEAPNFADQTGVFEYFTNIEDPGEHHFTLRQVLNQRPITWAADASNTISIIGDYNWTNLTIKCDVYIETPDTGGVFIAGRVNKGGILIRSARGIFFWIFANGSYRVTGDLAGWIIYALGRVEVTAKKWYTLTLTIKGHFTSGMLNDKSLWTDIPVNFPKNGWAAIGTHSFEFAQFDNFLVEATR
Procedure, shortened: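 Live 145M-Twi cells (Twitcher mouse brain-derived, GALC-null) stably expressing human GALC-G270D, with a wild-type GALC line, were compound-treated. Residual GALC activity was then read as fluorescence from 0.1 mM final HMU-β-gal at pH 5.2; higher signal means activation.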

activation, inactive:
CCOC(=O)c1c(C)[nH]c(CCC(=O)Nc2ccc(Cl)cc2C)c1C -10.6%
COC(=O)c1ccc(OC)c(CN2C(=O)N(c3ccc(C(C)=O)cc3)S(=O)(=O)c3ccccc32)c1 9.99%
Cc1ccc2oc(=O)c3cnn(CC(=O)N4CCN(c5ccccc5)CC4)c3c2c1 -10.1%
COC(=O)c1c(NC(=O)CS(=O)(=O)c2ccc(C)cc2)sc2c1CCCC2 -6.31%
Cc1c(Cl)cccc1NC(=O)CCN1C(=O)c2ccccc2Sc2ncccc21 -13.6%
CCC(Sc1nc2ccccc2c2nc(-c3ccccc3)nn12)C(=O)Nc1cccc(OC)c1 (stereo not drawn) -11.3%
O=C(Nc1ccc(F)cc1F)c1cc2nc(-c3ccco3)cc(C(F)(F)Cl)n2n1 -11.6%
CCN(CC)C(=O)c1cc(-c2ccc(Cl)cc2)on1 -21.5%
O=C(Nc1cccc(Cl)c1)c1ccc(F)c(S(=O)(=O)N2CCC3(CC2)OCCO3)c1 -6%
CCN(C(=O)Cn1nnc2sc(-c3ccccc3)cc2c1=O)c1cccc(C)c1 -11.1%
Cc1cc(NC(=O)CCNS(=O)(=O)c2ccc3c(c2)oc(=O)n3C)ccc1Br -4.25%
CCC(C)NC(=O)CSc1nc2n[nH]c(C)c2c(=N)n1-c1ccc(C)c(Cl)c1 (stereo not drawn) -10.4%
Cc1ccc2c(=O)cc(C(=O)Nc3ccc(S(=O)(=O)N(C)Cc4ccccc4)cc3)oc2c1 5.83%
Cc1ccc(CNC(=O)CN(c2ccc(C)cc2)S(=O)(=O)c2c(C)nn(C)c2C)cc1 -5.29%
CCN(CC)S(=O)(=O)c1ccc2c(c1)c(=O)c(C(=O)N1CCN(c3cccc(C)c3)C(C)C1)cn2C (stereo not drawn) -13.4%
COC(=O)c1cnn2c(C)c(Cc3c(C)cc(C)cc3C)c(C)nc12 -7.5%
O=C(Nc1nnc(S(=O)(=O)N2CCCc3ccccc32)s1)c1ccccc1 -15.3%
CCC1CN(C(=O)Nc2cccc3c2CCCC3)c2ccccc2O1 (stereo not drawn) -24%
COc1ccc(NC(=O)CCn2c(=O)c3cccn3c3ccccc32)c(OC)c1 -11.3%
COc1ccc(N2CC(NC(=O)C3CC3)CC2=O)cc1OC (stereo not drawn) -12.1%
CC(=O)c1ccc(NC(=O)CN(C)S(=O)(=O)c2cccc3nsnc23)cc1 -4.41%
COc1ccccc1-c1cc2nc(C)c(CCC(=O)NCc3cccc(Cl)c3)c(C)n2n1 -36.1%
CCCCn1c(C(C)NC(=O)c2ccccc2)nc2ccccc21 (stereo not drawn) -14.5%
O=C(Cn1c(=O)c2cccn2c2ccc(F)cc21)N1CCN(c2ccc(F)cc2)CC1 -0.172%
Fc1cccc(-n2ncc3c2ncn2nc(-c4ccccc4Cl)nc32)c1 -7.04%
CCOc1ccc(N(C)C(CNS(=O)(=O)c2ccccc2)c2ccccc2)cc1 (stereo not drawn) -16.7%
O=C(COc1ccccc1)Nc1cccc(-c2cn3cccnc3n2)c1 -18.3%
Cc1cccc(N2CCN(C(=O)CCn3c(=O)c4cccn4c4cccnc43)CC2)c1C -0.0569%
Cc1c(C(=O)Nc2ccc(F)cc2)sc2nc[nH]c(=O)c12 -10.2%
CCc1ccccc1NC(=O)c1cc(S(=O)(=O)N2CCCc3ccccc32)ccc1F -7.37%
CC(C)CCn1c(=O)c2sccc2n2c(CCCC(=O)NCc3ccc(F)cc3)nnc12 -11.7%
Nc1ccc2cc3ccc(N)cc3nc2c1 -7.22%
N#Cc1cccc(NC(=O)c2cc3c(s2)-c2ccc(Cl)cc2SC3)c1 12.1%
COc1ccccc1N1CCN(C(=O)c2cc(-c3ccccc3O)on2)CC1 -17.5%
CCOc1ccc(C(=O)Nc2cc(-c3nc4ccccc4s3)ccc2OC)cc1 17.6%
Cc1ccn2c(=O)c(C(=O)NC(C)c3ccccc3)c(O)nc2c1 (stereo not drawn) -13.7%
CCOc1ccccc1CNC(=O)c1cccn1-c1nnc(N2CCCCC2)s1 -7.92%
Cc1cc(C)cc(NC(=O)c2cccc3c2C(=O)N(C2CCCCC2)C3)c1 -1.72%
CCc1nn(CC(=O)NCc2ccccc2Cl)c(=O)c2cccn12 -11%
Cc1nc(-c2ccc(S(=O)(=O)Nc3ccc(C)c(N(C)C)c3)cc2)co1 -35.5%
COc1ccc(CCNC(=O)c2ccc3c(c2)N(Cc2ccc(F)cc2)CCS3)cc1OC -9.95%
O=S(=O)(c1ccccc1)c1nc(-c2cccs2)oc1SCc1ccc(F)cc1 -27.9%
Cc1nc(SCC(=O)Nc2ccccc2F)[nH]c(=O)c1Cc1ccccc1 -19.8%
COc1ccccc1-n1c(-c2ccc(C)cc2)cn2c3c(=O)n(C)c(=O)n(C)c3nc12 -2.39%
COc1ccc(NC(=O)c2cnc[nH]2)cc1 -6.24%
COc1ccc(S(=O)(=O)c2cc(NS(=O)(=O)c3ccc(Cl)cc3)c(C)c(C)c2O)cc1 -2.65%
Cc1ccc(C2c3[nH]c4ccccc4c3CCN2C(=O)CCC2CCCC2)cc1 (stereo not drawn) -10.5%
COc1ccc(CNC(=O)c2ccc(CS(=O)Cc3ccccc3Cl)o2)cc1 (stereo not drawn) 9.5%
CC12CCC(CC1)C(C)(C)O2 -9.65%
CCc1ccccc1NC(=O)C1CCCN(c2ncnc3onc(C)c23)C1 (stereo not drawn) -6.71%
COc1ccccc1CCNS(=O)(=O)c1ccc(N2CCCCS2(=O)=O)cc1 -9.32%
COc1ccc(NC(=O)CCc2nnc3n(CC(C)C)c(=O)c4ccccc4n23)cc1 -16.5%
O=C(c1ccc(CSc2nc3ccncc3n2Cc2ccccc2)cc1)N1CCCCCC1 -11.2%
Cc1ccc(-n2nc(C(=O)N3CCN(c4cc(Cl)ccc4C)CC3)c3c4ccccc4n(C)c3c2=O)cc1 -13.8%
Cc1ccc(Cl)cc1-n1ncc2c(Nc3cccc(C)c3C)ncnc21 -11.8%
Cc1ccc(NC(=O)Cn2ccn(-c3ccc(F)c(F)c3)c(=O)c2=O)cc1C -21.3%
O=C(Nc1cccc(C(=O)OCc2cc(=O)n3c4c(sc3n2)CCCC4)c1)c1ccccc1 -0.789%
O=c1c(S(=O)(=O)c2cccc(Cl)c2)cn(Cc2ccccc2)c2cc(N3CCOCC3)c(F)cc12 -5.46%
Cc1cccc(NC(=O)C(NS(=O)(=O)c2ccc3c(c2)oc(=O)n3C)C(C)C)c1 (stereo not drawn) 2.32%
C=Cc1ccc(CSc2nc(-c3ccc(C)cc3)nc3c2Cc2c(CO)cnc(C)c2O3)cc1 -12.7%
CC(C)c1ccc(OCC(=O)N(Cc2ccc(N(C)C)cc2)C2CCS(=O)(=O)C2)cc1 (stereo not drawn) -28.9%
CCOc1ccc(S(=O)(=O)Nc2nc3ccccc3nc2Nc2ccc(OC)cc2)cc1 2.63%
Cc1cc(C)c2nc(N(Cc3cccnc3)C(=O)CCOc3ccccc3)sc2c1 -7.81%
CCCNC(=O)CCSc1nc(-c2ccc3c(c2)OCO3)cc(C(F)(F)F)n1 -11.3%
CCc1ccc(NC(=O)Cn2c(=O)n(Cc3ccco3)c(=O)c3cccnc32)cc1 3.3%
Cc1ccc2nc(-c3cccnc3)c(Nc3ccccc3C)n2c1 -18.8%
CCOC(=O)c1c(SCC(=O)Nc2cc(Cl)cc(Cl)c2)nc(=O)[nH]c1C -10.3%
COc1cc(CCC(=O)NCc2ccc3c(c2)CCN3C(=O)c2ccc(F)cc2)cc(OC)c1OC -18.8%
Cc1ccc2nc(NCc3ccc(F)cc3)c3nncn3c2c1 -11.3%
Cc1nc(-c2ccc(S(=O)(=O)NCc3ccc(N(C)C)cc3)cc2)co1 -33.7%
CCN(CC)c1ccc(NC(=O)Cn2nc(C)n3cccc3c2=O)c(C)c1 -3.68%
Cc1cccc(-n2ncc3c(N4CCN(c5ccccc5)CC4)ncnc32)c1 4.88%
COc1ccc2ncc3c(-c4ccc(C)c(C)c4)nn(CC(=O)NC4CCCC4)c3c2c1 -6.35%
COc1ccc(-c2nc3c(c(SCC(=O)N(C)c4ccccc4)n2)Cc2cc(C)ccc2O3)cc1 -10.7%
CCCCNC(=O)C1CCC(CNS(=O)(=O)c2ccc(NC(C)=O)cc2)CC1 (stereo not drawn) -5.18%
CC(=O)Nc1ncc([N+](=O)[O-])s1 -14.3%
CCc1ccccc1NC(=O)CCc1c(C)nn(-c2ccc(N3CCOCC3)nn2)c1C -16.9%
CCc1nn2c(=O)cc(COC(=O)c3ccccc3NC(=O)C3CCCCC3)nc2s1 -8.66%
O=C(c1ccc(F)cc1)n1nc(-c2ccccc2)nc1NCc1ccc(F)cc1 -22%
COc1cc2ccccc2cc1C(=O)N1CCN(c2nc3ccc(F)cc3s2)CC1 -15.8%
CCc1ccc(CNCc2c(C(=O)O)n(Cc3ccc(F)cc3Cl)c3cc(OC)ccc23)cc1 4.24%
CSCCC(NS(=O)(=O)c1ccc2c(c1)oc(=O)n2C)C(=O)N1CCN(c2cccc(Cl)c2)CC1 (stereo not drawn) -23.5%
Cc1ccc(CNC(=O)c2nnn(CC(=O)Nc3cc(C)ccc3C)c2N)cc1 -19.4%
O=C(CN1C(=O)COc2ccc(S(=O)(=O)N3CCCCC3)cc21)NCc1ccc(Cl)cc1 -3.3%
CN(C(=O)c1cc2c(s1)-c1ccc(Cl)cc1SC2)c1cccc(C(F)(F)F)c1 -15.2%
COc1ccc(CCNC(=O)c2cnc3sc(N4CCCC4)nn3c2=O)cc1OC -7.89%
CCc1ccccc1NS(=O)(=O)c1ccc(NC(=O)N2CCCC2)cc1 -21.4%
CCOc1ccc(-c2cc(-c3nc(-c4cc(OC)c(OC)c(OC)c4)no3)[nH]n2)cc1 -23%
CCOC(=O)c1cc(-c2ccc(F)cc2)n(CCC(=O)NCCc2ccc(C)cc2)c1C -23%
Cc1ccc(CN(Cc2ccco2)C(=O)COc2ccc(Cl)cc2)o1 -10.5%
CC(=O)c1ccc(NC(=O)c2ccc(-c3nc(CSc4ccccc4)c(C)o3)cc2)cc1 -9.75%
Fc1ccc(-c2noc3ncnc(NCC4CCN(Cc5ccc(Cl)cc5)CC4)c23)cc1 -10.2%
Cc1ccc2cc3c(N)nn(C(=O)c4cccc(F)c4)c3nc2c1 -19%
CO[C@@]1(NC(=O)CSC[C@@H](N)C(=O)O)C(=O)N2C(C(=O)O)=C(CSc3nnnn3C)CS[C@@H]21 -15.7%
COc1cc(NC(=O)c2cc(C)nc3c2c(C)nn3-c2ccccc2Cl)cc(OC)c1 -41.4%
Cc1ccc(N2CCN(S(=O)(=O)c3ccc(F)c(C(=O)Nc4ccc(Cl)cc4Cl)c3)CC2C)cc1 (stereo not drawn) -1.5%
Cc1cc2c(cc3c(SCc4nc(-c5ccccc5)oc4C)nnc(C)n32)o1 -22.8%
Cc1cc(C)cc(NC(=O)Cn2nnc(-c3nc(-c4ccncc4)no3)c2N)c1 -22.7%
